Laboratory results: the RNAGym collection of RNA variant scans (doi:10.7554/elife.90254)
The source gives no read counts; variants with many changes may rest on few reads.

B1: LINE1-mini (parent)
chain: GGCAGAGCUCAACACAGCGUGGCAAAGUGGCUGUGGCUAGACUGCC

Variants of: B1
Assay: self-cleavage, relative activity (ratio to wild type); higher = more cleavage; in vitro, sequencing; the parent is a self-cleaving ribozyme
With A4U C23A U43A the self-cleavage was 2.64. For G1U C8U C15A A16C G27U U28A C31A, the self-cleavage was 0.01. Variant G2U A4G G5U C8U A11C U20A G40C has a self-cleavage of 0.02. C8G C15U C37G gave a self-cleavage of 0.1. In the case of C3A A4U A14G, the self-cleavage is reported as 0.14. G29A G30U G35A showed a self-cleavage of 0.01. Work on C37A U38C C42A yielded a self-cleavage of 0.03. C3A C13G G22U G27U C42A showed a self-cleavage of 0.34. Variant C3G A25G A41C has a self-cleavage of 0.02. Work on C3U G17A C31A yielded a self-cleavage of 0.02. For C3A C8U C10U G19U C46U, the self-cleavage was 0.11. Work on G2C A14C A26U C45A yielded a self-cleavage of 0.19. For A4U G30U G35A, the self-cleavage was 0.09. C8A C15A A26G G35A G44U C46G showed a self-cleavage of 0.04. For C8A G33A G36U U38G, the self-cleavage was 0.16. In the case of C3A G7C G44U, the self-cleavage is reported as 0.2. A6G C31U G35U showed a self-cleavage of 0.01. G17U G19A C23U G35C C42A showed a self-cleavage of 0.03. Variant G2A C18A G22A C23G A24G G35C has a self-cleavage of 0.05. A6G A11U U32G gave a self-cleavage of 0.03. C3G A4G G5A G22U gave a self-cleavage of 0.11. C31U U38A C46A gave a self-cleavage of 0.02. Variant G1C C3U U20A G22C C23U A25C C46G has a self-cleavage of 0.29. For U9C U20C U32A G40U A41G, the self-cleavage was 0.02. C15G A24C G27U C31U G33A U43G C46G showed a self-cleavage of 0.01. Variant A6C A14G C37G has a self-cleavage of 0.03. In the case of G2C A6U A11C C23G G36A U43A, the self-cleavage is reported as 0.01. For G21U G22U C23U, the self-cleavage was 0.9. C18G U32C C45A gave a self-cleavage of 0.12. Work on A11G G17C G36C yielded a self-cleavage of 0.01. C13U C23U G27C gave a self-cleavage of 0.02. A4U A11U G30C showed a self-cleavage of 0.04. Variant G1U U38C A41G has a self-cleavage of 0.07. A16C C31A G36A showed a self-cleavage of 0.03. G2A A12G G17A C23A A39U gave a self-cleavage of 0.01. Work on G21C G22C U38G C42A yielded a self-cleavage of 0.01. C13A C31G C45G showed a self-cleavage of 0.01. In the case of G1U A12C U20A G44A, the self-cleavage is reported as 0. For U9C A11U G35U U38C, the self-cleavage was 0.02. G1U A14G U34C showed a self-cleavage of 0.33. For A11C G29A C37G, the self-cleavage was 0.01. For G1U G2C G7U, the self-cleavage was 0.02. Work on G5A C10U G30C G40C yielded a self-cleavage of 0.01. Variant C3A U9G A25U U34C U38A A41G has a self-cleavage of 0.07. In the case of G1U C10U G30C, the self-cleavage is reported as 0.18. Variant U9A G27A G44A has a self-cleavage of 0.33. With A6U A11C A16C G19A G40C the self-cleavage was 0. A4U A11U U38A G44C showed a self-cleavage of 0. With A6G C15U U38A G40C A41C the self-cleavage was 0.12. Work on G2A C8A C10A A11G G17C G22U yielded a self-cleavage of 0.03. U20C G29U G33U gave a self-cleavage of 0.03. G21A U32A C46A showed a self-cleavage of 0.19. In the case of G1U G7A A39G, the self-cleavage is reported as 0.12. Work on G21U G22C U43A C45U yielded a self-cleavage of 0.05. Variant A24C A26C G36C U43C has a self-cleavage of 0.11. In the case of C3U C18A G27C G35A G44A, the self-cleavage is reported as 0.01. With G1U C10A A12G A14C G36C C46U the self-cleavage was 0. With G7U G21C G33U U38C U43C the self-cleavage was 0.08. A11U A12U C13A G21U G22A showed a self-cleavage of 0.04. Work on C8U A16C A26U yielded a self-cleavage of 0.38. For A14U U28A C37G G44U C45U, the self-cleavage was 0.02. Work on A6G C13G G19U G35C C46U yielded a self-cleavage of 0.16. With G5A U32A A41U the self-cleavage was 0.08. In the case of G5A C10A C15U G19C A25C, the self-cleavage is reported as 0.01. Work on C10A C13U A16G C42G C46U yielded a self-cleavage of 0.01. Work on C18A A24C G29U C42G yielded a self-cleavage of 0.02. G2A G7A A16G C46A showed a self-cleavage of 0.42. For G2A G35C C45A, the self-cleavage was 0.1. Work on G19A G21U G33A yielded a self-cleavage of 0.13. Variant C3U C15A G19C U20A C45U has a self-cleavage of 0.07. For A6C C23G G44A, the self-cleavage was 0.19. C13U C18U U28G C31G C37G showed a self-cleavage of 0.01. A11C C13U G19U A41C showed a self-cleavage of 0.02. In the case of A4C G40A U43G, the self-cleavage is reported as 0.11. Work on U9C C10G C13A yielded a self-cleavage of 0.02. G5U C10A G27U A41C showed a self-cleavage of 0.03. With C10A C37G U43C C45A the self-cleavage was 0. In the case of C23U A24G U28A C31A U34G C46A, the self-cleavage is reported as 0.01. Variant G1A A11G G17C A24U G30U has a self-cleavage of 0.02. Work on G2U C8U C37A C42A yielded a self-cleavage of 0.02. In the case of G33C G35A C42G, the self-cleavage is reported as 0.01. G1U U20G G27A G36A showed a self-cleavage of 0.09. With C3U A4U G27A G29A C31A U32A U43A the self-cleavage was 0.04. With C10A A14U G17U G22C C42U the self-cleavage was 0.
